Experimental data published in PubChem BioAssay AID588453 (National Center for Advancing Translational Sciences (NCATS), 2011).
Hit rate of the full screen: of about 390,000 compounds, about 4,000 (1%) were called active. Inconclusive means that the source gave no clear call. Such entries were picked first, then a sample of the others. Calls come from the whole dose curve; as a rule, active = well fitted inhibition curve with a large enough effect; inconclusive = small, poorly fitted or top-dose-only effect; inactive = no such curve, though single readings can be large or run the other way. Potencies beside an inconclusive call are fits to weak or partial responses and may not hold up.

The compounds below were run against Thioredoxin reductase 1, cytoplasmic (Rattus norvegicus) (UniProt O89049) (assay: qHTS Assay for Inhibitors of Mammalian Selenoprotein Thioredoxin Reductase 1 (TrxR1): qHTS). Details: recombinant rTrxR1, NADPH fluorescence consumption, selenite substrate; series mostly up to 114 µM.
In short: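 Rat TrxR1 (90 nM in the dispensed reagent) was pre-reduced with 400 uM NADPH for 5 min at room temperature, then incubated with compound for 15 min. After 400 uM selenite was added, NADPH fluorescence (Ex 340/Em 450 nm) was followed for 8 min.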
% is set by controls: 0 for no effect and ±100 for the full control effect; potency is the fitted concentration of half-maximal effect; tags give direction and shape of the fitted curve.
Note: nearly all actives have a fitted effect of over 65% in size.

Sequence of UniProt O89049 (O89049 whole entry, looked up): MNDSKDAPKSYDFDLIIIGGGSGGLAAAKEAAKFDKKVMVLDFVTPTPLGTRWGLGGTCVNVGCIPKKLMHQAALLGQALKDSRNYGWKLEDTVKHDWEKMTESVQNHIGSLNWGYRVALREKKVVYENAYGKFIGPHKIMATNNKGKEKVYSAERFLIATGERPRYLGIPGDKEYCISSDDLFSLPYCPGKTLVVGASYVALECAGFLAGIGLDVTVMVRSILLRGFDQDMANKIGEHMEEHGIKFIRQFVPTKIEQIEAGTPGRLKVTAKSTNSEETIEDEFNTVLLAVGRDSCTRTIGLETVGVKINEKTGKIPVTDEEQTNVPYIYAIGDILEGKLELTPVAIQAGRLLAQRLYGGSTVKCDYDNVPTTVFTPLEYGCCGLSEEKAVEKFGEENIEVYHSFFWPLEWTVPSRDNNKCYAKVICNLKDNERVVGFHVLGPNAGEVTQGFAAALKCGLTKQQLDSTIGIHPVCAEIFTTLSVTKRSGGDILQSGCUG

| Compound | Potency | activity change, negative = inhibition |
| --- | --- | --- |
| C=CCN1C(=O)NC(=O)/C(=C/c2ccc(OC)c(COc3ccc(NC(C)=O)cc3)c2)C1=O | inconclusive: 89.1 µM [inhibitor, single point] | – |
| CC1(C)CC(=O)C(C=NCCN2CCN(C(=O)Cc3ccc(F)cc3)CC2)=C(O)C1 | inconclusive: 15.8 µM [inhibitor, full curve] | – |
| O=C(CSC1c2ccccc2-c2ccccc21)N/N=C/c1ccccc1O | inactive | – |
| O=c1c2ccccc2nc(CN2CCCCCC2)n1-c1ccc(F)cc1 | inconclusive: 20 µM [inhibitor, full curve] | – |
| O=C(O)c1cccc2c1NC(C(=O)O)C1CC(Sc3ccccc3[N+](=O)[O-])C(Cl)C21 (stereo not given) | inconclusive: 79.4 µM [inhibitor, single point] | – |
| C[C@H]1C2Cc3ccc(O)cc3[C@]1(C)CCN2CC1CC1 | inconclusive: 33.6 µM [inhibitor, partial curve, poor fit] | – |
| NCC(=O)c1ccc2ccccc2c1 | – | inactive: 18.2% [at 0.0914 µM] |
| CNCCc1ccc(OC)c(OC)c1 | active: 20 µM | – |
| Cc1cc(C)c(-n2c(O)c(C=NCCN3CCOCC3)c(=O)[nH]c2=O)c(C)c1 | inconclusive: 35.5 µM [inhibitor, partial curve, poor fit] | – |
| Cc1cc(N2CCOCC2)ccc1/C=C1\C(=O)NC(=O)N(c2ccccc2)C1=O | inconclusive: 31.6 µM [inhibitor, partial curve] | – |
| CCCCn1c(O)c(C(C)=NCCc2c[nH]c3ccccc23)c(=O)[nH]c1=O | inconclusive: 25.1 µM [inhibitor, single point] | – |
| CN1C(=O)/C(=C\c2ccc(Br)s2)C(=O)NC1=S | active: 3.16 µM | – |
| Cc1cc(C)cc(N2C(=O)NC(=O)/C(=C\C=C\c3ccco3)C2=O)c1 | inconclusive: 15.8 µM [inhibitor, full curve] | – |
| COc1ccc(C=C2C(=O)NC(=S)NC2=O)cc1 | active: 2.82 µM | – |
| Cc1ccc(Sc2ccc(C=C3C(=O)N(C)C(=O)N(C)C3=O)o2)cc1 | inconclusive: 12.6 µM [inhibitor, partial curve] | – |
| Cn1cnc([N+](=O)[O-])c1Sc1ccc([N+](=O)[O-])cc1 | inconclusive: 3.16 µM [inhibitor, partial curve, poor fit] | – |
| Cc1ccccc1-n1c(O)c(/C=C2/C(c3ccccc3)=Nc3ccccc32)c(=O)[nH]c1=O | inconclusive: 89.1 µM [inhibitor, single point] | – |
| CCC(C)(C)n1nnnc1C(c1cccs1)N1CC=C(c2ccc(F)cc2)CC1 (stereo not given) | inconclusive: 28.2 µM [inhibitor, partial curve, poor fit] | – |
| O=C(CCl)NN=C(c1ccccc1)c1ccccc1 | active: 14.1 µM | – |
| NC(=O)c1cn(C2OC(CO)C(O)C2O)c2ncnc(N)c12 (stereo not given) | inactive | – |

| Compound | Potency | activity change, negative = inhibition |
| --- | --- | --- |
| Fc1ccccc1CCNCc1cccc(Cl)c1Cl | inactive | – |
| CC(=O)NC(Cc1ccc(N(CCCl)CCCl)cc1)C(=O)NC(C(=O)O)C(C)C (stereo not given) | inconclusive: 14.1 µM [inhibitor, partial curve] | – |
| O=C(c1ccccc1)C(CN1CCCC1)c1ccccc1 (stereo not given) | inconclusive: 20 µM [inhibitor, partial curve, poor fit] | – |
| CCN1C(=O)NC(=O)/C(=C\c2cn(CC(=O)N3CCCC3)c3ccccc23)C1=O | inconclusive: 39.8 µM [inhibitor, partial curve, poor fit] | – |
| O=[N+]([O-])NC1=NCN(Cc2ccco2)CN1Cc1ccco1 | inconclusive: 89.1 µM [inhibitor, single point] | – |
| CCc1ccc(OCC(=O)N2CCN(CCc3ccncc3)CC2)cc1 | inconclusive: 44.7 µM [inhibitor, partial curve] | – |
| O=C(O)CCn1cc(C=C2C(=O)NC(=S)NC2=O)c(-c2ccccc2)n1 | inconclusive: 14.1 µM [inhibitor, partial curve] | – |
| O=C1NC(=S)N(c2ccccc2)C(=O)/C1=C/c1ccco1 | active: 20 µM | – |
| Cc1cccc(N2C(=O)CC(=O)NC2=O)c1 | inconclusive: 2.82 µM [inhibitor, partial curve, poor fit] | – |
| CC1CC(OP(O)(=S)c2ccc(N(C)C)cc2NC(=O)c2cccs2)CC(C)(C)C1 (stereo not given) | inconclusive: 44.7 µM [inhibitor, partial curve] | – |
| CCN(CC)c1ccc(/C=C/[N+](=O)[O-])cc1 | inconclusive: 25.1 µM [inhibitor, single point] | – |
| COc1cccc(C2C([N+](=O)[O-])=C(N)Oc3c2c(=O)oc2ccccc32)c1 (stereo not given) | inconclusive: 31.6 µM [inhibitor, partial curve, poor fit] | – |
| Cc1ccc(N2C(=O)NC(=O)/C(=C\c3cc(C)n(-c4cc(C(=O)O)cc(C(=O)O)c4)c3C)C2=O)cc1 | inconclusive: 28.2 µM [inhibitor, partial curve, poor fit] | – |
| O=C1NC(=O)N(c2ccccc2F)C(=O)/C1=C/c1ccc(Sc2nc3ccccc3[nH]2)o1 | inconclusive: 39.8 µM [inhibitor, partial curve, poor fit] | – |
| O=C1NC(=O)N(c2ccc3c(c2)OCO3)C(=O)/C1=C/c1ccc(N2CCCC2)o1 | inconclusive: 56.2 µM [inhibitor, partial curve, poor fit] | – |
| Cc1ccc2[nH]c3c(c2c1)CN(C(=O)CN1C[C@H]2C[C@@H](C1)c1cccc(=O)n1C2)CC3 | inconclusive: 79.4 µM [inhibitor, single point] | – |
| CCCNC(=O)c1c(N)n(Cc2ccc3c(c2)OCO3)c2nc3ccccc3nc12 | inactive | – |
| Cc1ccc(S(=O)(=O)Nc2ccc3c(c2)CC(=O)N([C@H](C)CO)C[C@@H](C)[C@H](CN(C)S(=O)(=O)c2ccccc2)O3)cc1 | inconclusive: 20 µM [inhibitor, full curve] | – |
| O=C1NC(=O)N(c2ccccc2)C(=O)/C1=C/c1ccoc1 | inconclusive: 12.6 µM [inhibitor, partial curve, poor fit] | – |
| NCCc1ccc(O)cc1 | inconclusive: 0.0474 µM [inhibitor, full curve, poor fit] | – |
